According to PubChem BioAssay AID1159614 (National Center for Advancing Translational Sciences (NCATS), 2016):
About 65 (0.1%) of roughly 45,000 compounds were called active. Calls follow the shape of the dose curve; as a rule, active = well fitted activation curve with a large enough effect; inconclusive = small, poorly fitted or top-dose-only effect; inactive = no such curve, though single readings can be large or run the other way. The list shows a part of the results.

Target: Galactocerebrosidase (Homo sapiens) (UniProt P54803)
UniProt P54803, sequence (P54803 whole entry, looked up): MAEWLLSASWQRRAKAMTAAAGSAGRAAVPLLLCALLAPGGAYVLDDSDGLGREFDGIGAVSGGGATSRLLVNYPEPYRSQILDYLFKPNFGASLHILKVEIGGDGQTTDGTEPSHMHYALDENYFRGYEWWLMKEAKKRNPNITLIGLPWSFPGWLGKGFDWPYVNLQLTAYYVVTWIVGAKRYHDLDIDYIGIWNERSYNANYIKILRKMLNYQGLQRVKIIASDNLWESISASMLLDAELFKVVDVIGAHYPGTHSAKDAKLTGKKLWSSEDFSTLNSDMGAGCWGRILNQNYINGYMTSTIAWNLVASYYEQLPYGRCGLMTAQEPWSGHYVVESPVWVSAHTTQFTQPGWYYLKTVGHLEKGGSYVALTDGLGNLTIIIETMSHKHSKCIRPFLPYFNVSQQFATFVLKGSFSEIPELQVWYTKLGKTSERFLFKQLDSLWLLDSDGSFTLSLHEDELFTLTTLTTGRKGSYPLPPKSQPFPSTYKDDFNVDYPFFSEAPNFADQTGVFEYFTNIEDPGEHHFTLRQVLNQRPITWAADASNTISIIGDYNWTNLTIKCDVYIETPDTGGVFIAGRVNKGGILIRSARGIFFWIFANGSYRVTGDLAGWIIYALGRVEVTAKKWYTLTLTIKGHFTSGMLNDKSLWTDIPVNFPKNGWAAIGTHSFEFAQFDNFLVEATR
Assay: A Novel Cell-Based Assay to Identify Small Molecules for B -Galactocerebrosidase; also: 0% is about no effect; nearly all actives have a fitted effect of over 65% in size
Settings: 145M-Twi-hGALC-G270D cells, HMU-beta-Gal fluorescence, 48 h; series mostly up to 57.5 µM; activation: at the top concentration
Method in brief: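 qHTS, 1536-well; 145M-Twi-hGALC-G270D cells (WT line also made) in DMEM/F12 + 10% FBS; compound incubation on live cells; HMU-β-gal 0.1 mM final, pH 5.2, NaTC; carbonate stop; fluorescence increase = enhanced residual activity.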

activation, inactive:
Cc1ccc(NC(=O)CN2C(=O)COc3ccc(S(=O)(=O)NC4CCCC4)cc32)cc1N(C)C -11.8%
Cc1ccc(C)c(Cn2c(=O)c3c(nc4n3CCN4c3ccccc3)n(C)c2=O)c1 -7.36%
CC(C)c1noc(-c2ccccc2OCC(=O)Nc2cccc([N+](=O)[O-])c2)n1 -5.09%
CCN(CC)S(=O)(=O)c1ccc2c(c1)c(=O)c(C(=O)N1CCN(c3cc(Cl)ccc3C)CC1)cn2C -21.2%
CC(C)Sc1ncc(Cl)c(C(=O)Nc2ccc(S(=O)(=O)N3CCCCC3)cc2)n1 -8.18%
Cc1ccc(CN(C(=O)COc2cc(C)c(Cl)c(C)c2)c2ccccn2)o1 -21.9%
COc1ccc(-c2nc3scc(CCNS(=O)(=O)c4ccc5c(c4)OCCO5)n3n2)cc1 -9.08%
CC(=O)N1CCc2cc(Br)cc(S(=O)(=O)CCC(=O)N3CCN(c4ccccc4Cl)CC3)c21 -17.6%
CCOc1ccc(-c2c(C)nn3c(C)c(C(=O)Nc4cc(C)cc(C)c4)cnc23)cc1OCC -10.7%
Cc1ccc(-c2cc3nc(-c4ccccc4)cc(C(F)(F)F)n3n2)cc1 -5.82%
COc1cc(C2CC(=O)Oc3c2c(=O)[nH]c2ccccc32)cc(OC)c1OC (centres undefined) -3.18%
Cc1ccc(NC(=O)C2CCN(S(=O)(=O)c3cccc4nonc34)CC2)cc1C -2.52%
O=C(Oc1ccccc1F)c1nc(SCc2ccc(F)cc2)ncc1Cl -15%
CCOc1ccc(Nc2c(S(=O)(=O)c3ccccc3)cnc3ccc(F)cc23)cc1 -17.7%
Cc1cc(C)c2sc(N3CCN(C(=O)c4ccc(N(C)C)cc4)CC3)nc2c1 -30%
COc1ccccc1N1CCN(S(=O)(=O)c2c(C)nc3sccn3c2=O)CC1 -1.24%
Cc1ccc(S(=O)(=O)c2c(O)cc(C)c(NS(=O)(=O)c3ccc(Cl)cc3)c2C)cc1 -13.4%
CC(C)c1nn2c(=O)cc(COC(=O)c3ccco3)nc2s1 -1.95%
CCCCCCCCCCCCCCCCCC(=O)OCC(O)CO (centres undefined) -14.7%
Cc1nn2c(C)c(C(=O)NC(C)(C)C)cnc2c1-c1ccc(F)cc1 -11.7%
O=C(CSc1nc(=O)[nH]c2c1CCCC2)NCc1ccccc1 -9.94%
COc1ccc(N2C(=O)CSC23C(=O)N(CC(=O)NCCc2ccccc2)c2ccccc23)cc1 (centres undefined) -21.9%
COc1ccccc1C(=O)Nc1ccc(C(=O)OCc2cc(=O)n3nc(C4CC4)sc3n2)cc1 -20%
CCCCNC(=O)c1cc2n(n1)CCCN(Cc1ccc(C)cc1)C2=O 6.96%
CCOc1ccc(C(=O)Nc2ccc3oc(-c4ccc5ccccc5c4)nc3c2)cc1 -4.5%
COc1ccc(NC(=O)Cn2c(=O)n(Cc3ccccc3)c(=O)c3sc4ccccc4c32)cc1 -11%
CCc1ccc(Cn2c(CNS(=O)(=O)c3ccc(C)c(C)c3)nc3cccnc32)cc1 2.6%
Cc1ccc(N2CC(NC(=O)c3cc4ccccc4o3)CC2=O)cc1 (centres undefined) 0.0361%
CCc1nc2nc(C)cc(Nc3cc(C)ccc3C)n2n1 -12.2%
CCOC(=O)c1ccc(NC(=O)Cn2nc(C)c3nn(-c4ccc(Cl)cc4)c(C)c3c2=O)cc1 -7.66%
CCOC(=O)c1c(NC(=O)C(C)Sc2cn(CCNC(=O)c3ccc(OCC)cc3)c3ccccc23)sc2c1CCC2 (centres undefined) -8.16%
Cc1cccc(N2CCN(C(=O)c3cnn(-c4ccccc4)c3C3CCN(C(=O)OC(C)(C)C)CC3)CC2)c1C 3.58%
CCOC(=O)c1c(S(=O)(=O)N2CCC(C(=O)NCc3ccccc3Cl)CC2)c(C)n(C)c1C -15.1%
COc1ccc(N2CC(NC(=O)C(c3ccccc3)c3ccccc3)CC2=O)cc1 (centres undefined) 8.41%
COc1cccc(CNC(=O)c2ccc3c(c2)sc2nc(-c4cccc(OC)c4)cn23)c1 -15.1%
COCCn1ccc2c(OCC(=O)Nc3cccc(C(F)(F)F)c3)cccc2c1=O -12.1%
Cc1nc2nc[nH]n2c(=O)c1NS(=O)(=O)c1ccc(Br)cc1 3.64%
CC(c1cc2ccccc2s1)N(O)C(N)=O (centres undefined) -10.4%
Clc1ccc(CSc2nncn3c2cc2occc23)cc1 -6.78%
Cc1ccc(Nc2ncnc3c2nc2n3CCCC2)cc1F -1.53%
CC1=C(c2ccc(Cl)cc2)S(=O)(=O)N=C1N1CCN(c2cc(C)ccc2C)CC1 -27.4%
COc1ccc2sc(N(Cc3cccnc3)C(=O)CCc3ccccc3)nc2c1 5.85%
Cc1cc2[nH]c(=O)c(=O)[nH]c2cc1S(=O)(=O)N1CCN(c2ccccc2F)CC1 -9.41%
Cc1cccc(N(C)S(=O)(=O)c2ccc3c(c2)NC(=O)CC(=O)N3)c1 -11.6%
COc1ccc(CNC(=O)C(=O)NCC(c2cccnc2)N2CCN(c3ccccc3)CC2)cc1 (centres undefined) -8.55%
Cc1cc(C)cc(-n2c(SCC(=O)Nc3ccc4c(c3)OCO4)nc3c([nH]c4ccccc43)c2=O)c1 2.89%
COc1cccc(Cn2c(=O)n(Cc3ccccc3)c(=O)c3c2c2cc(OC)ccc2n3C)c1 -0.869%
CCCN1CCCc2cc(CN(CCCN3CCOCC3)C(=O)Nc3ccc(Cl)c(Cl)c3)ccc21 -10.7%
CCc1ccc(NC(=O)CNC(=O)Cn2c(C)cc3ccccc3c2=O)cc1 -11%
Clc1ccc(-c2cn3cc(Cc4ccccc4)sc3n2)cc1 -0.102%
CCOc1ccc(CCNC(=O)c2ccc(CSCc3ccccc3C)o2)cc1OCC -6.43%
O=C(CSc1nc(=O)n(Cc2ccncc2)c2c1CCC2)Nc1cccc(F)c1 -14.9%
CC[C@@]1(O)C(=O)OCc2c1cc1n(c2=O)Cc2c-1nc1ccccc1c2/C=N/OC(C)(C)C -16.9%
COC(=O)c1c(NC(=O)c2ccc(C(C)(C)C)cc2)sc2c1CCC(C)C2 (centres undefined) -6.83%
CCN(C(=O)Cn1nc(Cc2ccncc2)c2ccccc2c1=O)c1ccc(OC)cc1 -10.7%
CCOC(=O)c1c(NC(=O)COc2ccccc2)sc(C(C)=O)c1C -15.4%
COc1cc(C2CC(=O)c3c([nH]c(C(=O)OC4CCCC4)c3C)C2)cc(OC)c1OC (centres undefined) -18.2%
CC1(C)CC(=O)c2cc(-c3nc(-c4ccc(F)cc4)cs3)c(=O)[nH]c2C1 -7.25%
CCN(C(=O)C(NS(=O)(=O)c1ccc(Br)s1)c1ccccc1)c1ccc(C)c(C)c1 (centres undefined) -10.4%
CCOc1ccc(NC(=O)c2c(NCc3cc(OC)c(OC)cc3OC)sc3c2CCCC3)cc1 -41.1%
CCC(=O)N1c2ccccc2CC1C(=O)NCCN1CCN(c2cc(Cl)ccc2C)CC1 (centres undefined) -23.5%
COc1ccc(C)cc1NC(=O)Cn1cc(S(=O)(=O)N2CCC(C)CC2)c2ccccc2c1=O -11%
Cc1cc(C)cc(OCC(=O)N2CCC(c3nc4ccccc4o3)CC2)c1 -3.65%
COC(=O)c1ccccc1NC(=O)C(Cc1ccccc1)N1Cc2ccccc2C1=O (centres undefined) -13.5%
O=C(Cc1ccc(Cl)cc1)Nc1ccc2oc(-c3ccc(F)cc3)nc2c1 4.41%
N#C/C(=C\c1ccc(F)cc1)c1nc(-c2ccc(-c3ccccc3)cc2)cs1 -18.2%
CCCC1=Nc2cc(C(=O)NC3CCCCC3)ccc2Sc2ccc(C)cc21 -34.8%
Cc1cc(C)c2c(=O)c3c(oc2c1)C(=O)N(CCCOC(C)C)C3c1ccccc1F (centres undefined) 1.81%
COc1cccc(CC(=O)Nc2c(C(=O)N3CCN(c4ccccc4F)CC3)oc3ccccc23)c1 -19.6%
COCCCNc1nc2c(c(=O)[nH]c(=O)n2C)n1CC(O)COc1ccc(Cl)cc1 (centres undefined) -9.5%
CC(=O)Nc1ccc(S(=O)(=O)NCC2CCC(C(=O)NCCc3ccc(C)cc3)CC2)cc1 (centres undefined) 5.55%
COc1ccc(NC(=O)Cn2c(-c3ccc(F)cc3)cc(C(C)=O)c2C)c(OC)c1 -20.4%
CC(=O)c1cccc(NC(=O)c2ccc3c(c2)N(Cc2ccc(C)cc2)CCS3)c1 -13.2%
COc1ccc(CCNC(=O)Cn2c(=O)nc(-c3ccccc3)c3cc(Cl)ccc32)cc1OC -20.7%
Cc1ccc(C)c(N2CCN(CCCNC(=O)c3ccc4nc(N5CCC(C)CC5)sc4c3)CC2)c1 -11.2%
COc1cc2c(cc1OC)C(CC(=O)O)N(C(=O)Nc1cc(OC)c(OC)c(OC)c1)CC2 (centres undefined) -15.4%
CCc1ccc(C2=NN(CCC(=O)NCCc3ccccc3)C(=O)CC2)cc1 -6.66%
COc1ccc(N(CC(=O)NCCc2ccccc2)S(=O)(=O)c2c(C)nn(C)c2C)cc1 -15.4%
CCc1cccc(NC(=O)C(Cc2ccccc2)NS(=O)(=O)c2cccs2)c1 (centres undefined) -25.8%
COc1ccc(-n2c(=O)c3c4c(sc3n(Cc3ccccc3C)c2=O)CCCC4)c(OC)c1 -10.3%
CC(=O)c1ccc(Nc2cc(C)nc3nc(Cc4ccccc4)nn23)cc1 0.703%
CCOc1ccc(C(=O)NCCc2csc(-c3cccc(C)c3)n2)cc1 -9.91%
CC(C)c1ccc(Nc2sc(C(=O)c3ccccc3)c(N)c2S(=O)(=O)c2ccccc2)cc1 -8.67%
CCc1nc2ccc(C(=O)N3CCN(c4cccc(Cl)c4)CC3)cc2nc1CC -12.9%
CC(C)CC(=O)Nc1nnc(S(=O)(=O)N2c3ccccc3CC2C)s1 (centres undefined) -10.3%
CCC1(C)CC(=O)c2c(ccc3oc(C(=O)Nc4ccc(C(C)=O)cc4)c(C)c23)O1 (centres undefined) -16.4%
Cc1ccc(N2CCN(C(=O)Cn3ncc4c([nH]c5ccc(C)cc54)c3=O)CC2)c(C)c1 -6.84%
NS(=O)(=O)c1ccc(NC(=O)CCC(=O)O)cc1 -14.3%
CCCn1c2ccccc2c2cnn(CC(=O)Nc3cc(OC)c(OC)c(OC)c3)c(=O)c21 -1.69%
COc1ccc(-c2cc3ccc(O)c(CN4CCN(C)CC4)c3oc2=O)cc1OC -24%
COc1cc(CNC(=O)c2cnc3c(-c4cccc(C)c4)c(C)nn3c2C)cc(OC)c1OC -16.7%
CCc1ccc(C(=O)COC(=O)C(NC(=O)C2CCC(C)CC2)C(C)C)cc1 (centres undefined) -14.5%
CCN(c1ccccc1)S(=O)(=O)c1ccc(NC(=O)c2nc(S(C)(=O)=O)ncc2Cl)cc1 -17.8%
CCOCCOC(=O)c1ccc2c(c1)N(Cc1ccccc1C#N)C(=O)c1ccccc1S2(=O)=O -11.9%
